This is one part of the list. At the low end of the ranking the order means little.

The experiment deals with T1, GST-Rok-C97-191 (UniProt O34857).
T1 sequence: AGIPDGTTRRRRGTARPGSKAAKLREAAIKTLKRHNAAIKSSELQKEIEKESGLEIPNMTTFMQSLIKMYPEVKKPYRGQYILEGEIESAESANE
Put plainly: protein binding microarray.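 Further: rank score from −0.5 (least bound) to 0.5 (best bound).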 Particulars: Rok is a gene silencer of Bacillus subtilis; high values mean tight binding; most listed sequences are background and not binding sites; double strand, one strand shown.
On to CGTAGTTA, for which the binding signal was 0.199 E-score.
To ATCTGTCG belongs -0.0608 E-score; to CGGTAGCC, -0.199 E-score; to TTATTGAA, -0.0933 E-score.
To GTGTGATA belongs -0.0282 E-score; to TACAAACA, 0.304 E-score.
To CCAGGTCG belongs -0.156 E-score; to CAAGGGTA, -0.105 E-score; to AGACTCTA, 0.092 E-score.
The sequence CAGCAAGA registered a binding signal of 0.159 E-score.
In turn, AGCGAAAG showed a binding signal of -0.141 E-score.
To ATACGCAT belongs -0.0703 E-score.
The sequence ACTTGACG came in with a binding signal of -0.134 E-score.
To AAAAGGTG belongs -0.0845 E-score; to GGGAATAC, 0.143 E-score.
As for GCATCGGA, the binding signal was -0.0812 E-score.
To CGGGCTCC belongs -0.292 E-score; to GCGTGTCC, -0.0889 E-score; to CCTTGCCG, -0.199 E-score.
To GCTTGACC belongs -0.252 E-score; to TCCCGGAA, -0.143 E-score.
To AAGCATAA belongs 0.0741 E-score; to GCAGCAGA, -0.091 E-score.
Consider CCAATGCC, for which the binding signal was -0.224 E-score.
To AACTGGGG belongs -0.231 E-score.
Sequence GCATGGAC came in with a binding signal of -0.00639 E-score.
To AAATCTAC belongs 0.441 E-score; to TGTAAACA, 0.079 E-score; to ATAATGAG, 0.217 E-score.
To CGAAACGA belongs -0.0558 E-score; to GTGTGACA, -0.0947 E-score.
To CCTGACGC belongs -0.212 E-score; to AATTTGTG, 0.138 E-score; to TGATGCCA, -0.299 E-score.
As to ACTGTAAT, the binding signal was 0.258 E-score.
On to GGAATCAC, for which the binding signal is -0.0168 E-score.
To AGAGACTG belongs 0.0621 E-score.
To ACCCGGAA belongs 0.0679 E-score; to CTAGCAAG, 0.221 E-score.
To AAATCCCC belongs -0.178 E-score.
As for CTGGCGCC, the binding signal is -0.249 E-score.
To TCCGACGA belongs -0.0595 E-score.
ATTGAATG displayed a binding signal of 0.052 E-score.
To CGGGATAC belongs -0.0205 E-score; to CCGTTGGC, -0.314 E-score; to GCGGAGTA, -0.217 E-score.
To AGCTCTTA belongs 0.106 E-score.
To AGAAGATC belongs 0.0464 E-score; to GGTATCAA, 0.122 E-score.
CAAAGTGC displayed a binding signal of -0.0301 E-score.
To ACCATGTG belongs -0.125 E-score; to CCAATTGC, 0.1 E-score; to ACTGAGGC, -0.204 E-score.
To ATAACCAG belongs -0.00227 E-score; to GAACATGC, 0.00746 E-score; to CGCTCTTA, -0.0173 E-score.
To CCCCCTGC belongs -0.394 E-score; to ATGCGCAA, 0.00657 E-score; to CGAGAGGA, -0.153 E-score.
For the sequence TGCATGAA, the binding signal stood at 0.0171 E-score.
To AAGACGAG belongs -0.185 E-score; to TCCCGCAA, -0.212 E-score.
The sequence GTATTCTA showed a binding signal of 0.232 E-score.
To CGTTGCTA belongs 0.21 E-score; to CAGCTCAA, 0.0893 E-score; to TAACCCCA, -0.153 E-score.
To ATGTGCAC belongs -0.0271 E-score; to GTGCCTAA, -0.216 E-score; to AAACTGCG, -0.095 E-score.
To AGTCAGCA belongs -0.0559 E-score; to ATTATCTA, 0.385 E-score.
In turn, GAAGTTGA registered a binding signal of 0.00777 E-score.
To ACCTCAAC belongs -0.118 E-score; to AGAGCGAA, -0.138 E-score; to ATTTTTAG, 0.209 E-score.
To CCCATATC belongs -0.0677 E-score.
To ATGAGTAA belongs -0.0104 E-score.
CCGACGTC: the binding signal is -0.153 E-score.
To ATGACAGA belongs -0.112 E-score; to AGTAACCC, -0.223 E-score; to CCTTGTCA, -0.206 E-score.
To CAATGGCA belongs -0.0671 E-score; to ATATTAAA, 0.385 E-score.
Consider CGCGTAGC, for which the binding signal is -0.159 E-score.
To ATTTGCGG belongs 0.0151 E-score.
To CCCCCACC belongs -0.384 E-score.
To AGTTAAAT belongs 0.335 E-score; to CCGAAAGG, -0.103 E-score.
Turning to ATCGAACC, the binding signal is 0.0073 E-score.
To CTAATTGC belongs 0.163 E-score; to GTGTCGTA, 0.0443 E-score; to TATGGTAA, 0.184 E-score.
Sequence GAGACGTA yielded a binding signal of -0.153 E-score.
CCTTGGCC returned a binding signal of -0.25 E-score.
To TAAGGGTA belongs 0.126 E-score.
To ACAATTAG belongs 0.197 E-score.
In turn, GACTGACA registered a binding signal of -0.149 E-score.
To AGACTGAA belongs 0.00792 E-score; to CGCGGCCC, -0.439 E-score.
To AACGCAAG belongs -0.0204 E-score; to GTCCCGCA, -0.222 E-score; to ATTCACAG, 0.107 E-score.
To CTAAGAGC belongs -0.156 E-score; to AGACGCTG, -0.178 E-score; to GTTCCCTA, -0.125 E-score.
Sequence AGTGGTGC displayed a binding signal of -0.189 E-score.
To CGGTATCA belongs 0.137 E-score; to CCGCCGCC, -0.275 E-score.
To AGTTTTCG belongs 0.0225 E-score.
GATTCGAC displayed a binding signal of 0.0186 E-score.
Take CAATTGCA: the binding signal is -0.126 E-score.
To CATGTGGC belongs -0.0798 E-score.
To GGAGGGCC belongs -0.396 E-score; to TAGCGGCA, 0.187 E-score.
To AAGATGAT belongs -0.0553 E-score; to AACGGCGC, -0.0687 E-score.
Consider ACGCACGT, for which the binding signal is -0.231 E-score.
ACAATGTG gave a binding signal of 0.275 E-score.
To CCTATCGC belongs -0.107 E-score; to CACGAAGG, -0.127 E-score; to ATTGTAGC, 0.172 E-score.
To CACAATCG belongs -0.043 E-score; to AAGTCTCG, -0.0775 E-score.
To CAAATGGC belongs 0.0931 E-score.
Sequence ACTTCTAC gave a binding signal of 0.231 E-score.
To CCTGGTCG belongs -0.164 E-score; to CATTTTAA, 0.032 E-score.
CACTCACA: the binding signal worked out at 0.0646 E-score.
To AAACTTAG belongs 0.128 E-score; to ACCTAGTG, 0.0373 E-score.
In turn, CCACTCCC registered a binding signal of -0.152 E-score.
To AGACTAGC belongs 0.126 E-score.
To ATATAGTG belongs 0.253 E-score.
To AGGGTCGG belongs -0.361 E-score; to GGTTAACA, 0.0323 E-score; to AGCGTAAA, 0.0698 E-score.
With AAGGCCTT, the binding signal is -0.173 E-score.
To CGCTGTCC belongs -0.177 E-score; to CCTGAGTA, -0.0503 E-score.
To ACGAAGCT belongs 0.0234 E-score; to ACTGAAAA, 0.114 E-score; to GAGTCGCC, -0.256 E-score.
To CTTGTTGC belongs 0.0629 E-score; to CATTAGCA, -0.14 E-score; to CGGTTCGC, -0.0901 E-score.
For the sequence ACTTGTTG, the binding signal was 0.0944 E-score.
To CCAATGCA belongs -0.0289 E-score; to CCGTTGGA, -0.177 E-score.
To GATGCTCA belongs -0.118 E-score; to CCCAGGGG, -0.203 E-score.
To CGACTCGC belongs -0.217 E-score; to CGGGGGTC, -0.259 E-score.
The sequence CCGGCGAC yielded a binding signal of -0.28 E-score.
On to ATAGAGAT, for which the binding signal worked out at 0.109 E-score.
To ACACATTC belongs -0.0305 E-score; to ATCAGCAC, -0.0279 E-score.
To AACACTGC belongs 0.119 E-score; to GCGGTAAA, 0.0639 E-score; to CGCTCAGC, -0.162 E-score.
To ACTATGCC belongs -0.024 E-score; to ATGGGGGC, -0.207 E-score; to CTGTCAGC, -0.258 E-score.
As to AATAGAAC, the binding signal was determined as 0.151 E-score.
To ACGGTAGC belongs 0.0805 E-score; to GTTTAAAA, -0.0408 E-score; to CCCTCAGA, -0.192 E-score.
To ACCCCACA belongs -0.105 E-score.
To TAAATACA belongs 0.225 E-score.
With CCTCCGGC, the binding signal is -0.324 E-score.
For GCGGTGAC, the binding signal was -0.243 E-score.
To CAACGCGG belongs -0.206 E-score; to ACTGCAAT, 0.0395 E-score.

These data come from article PMC6212790.
